Values marked as one replicate rest on one cluster of the flow cell; about a third of the high ones do not repeat.
Tested on: ATP
Assay: switch fluorescence ratio, 500 uM ATP over buffer (Cy3 cluster intensity, sum of 5 cycles each) (fold (ratio)); higher = stronger signal-on switching upon ATP binding; sequences stand for … in TCGTCGGCAGCGTCAGATGTGTATAAGAGACAGTTTTTTTTTTTTTTTTTTTTTTTTT…TC
Conditions: aptamer strand: ATP DNA aptamer (quencher-CACCTGGGGGAGTATTGCGGAGGAAGG + anchor), 100 nM annealed; ATP concentration: 500 uM; one replicate
In short: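 Cy3-labelled switching-strand clusters on a modified Illumina MiSeq flow-cell were annealed to 100 nM quencher-labelled ATP aptamer and imaged first in selection buffer, then after 15 min with 500 uM ATP at 22 °C. NaOH stripping and re-annealing separated each of five buffer/ATP cycles, and clusters outside 100-1000 RFU were excluded. The fluorescence ratio sums target-cycle Cy3 intensity over buffer-cycle Cy3 intensity per cluster and averages it per switch-domain sequence.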
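Note: ATP exposure 15 min at 22 °C before imaging.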

Row | Sequence | switch fluorescence ratio
1 | TTACGATTTG | 0.988
2 | ATACCGGGTG | 3.16
3 | TGGTCGTGGA | 1.04
4 | GTGAGCGATC | 1.15
5 | GCTAGAACAT | 1.04
6 | GGACATCGTG | 1.02
7 | GGTAAACGCA | 1.01
8 | CGAGTGCAGG | 0.973
9 | AGATCCTCAT | 1.04
10 | TCGGTACGTT | 0.95
11 | CGGAAGCGCA | 1.04
12 | TAGGGCGAGA | 0.977
13 | CTTTCACATG | 0.987
14 | CCACTAAAGA | 1.07
15 | GGTGTCCTTT | 1.01
16 | CGTGTTAGAA | 1.19
17 | GTAGTGCTAA | 0.965
18 | AATTCCGGAG | 2.53
19 | GATCCTCAAA | 0.995
20 | TACCAAAGCG | 1.07
21 | TCGATGTTGC | 1.04
22 | TGTTAGTTA | 0.968
23 | TTTCCAGTAG | 0.973

Row | Sequence | switch fluorescence ratio
24 | AGGGTATTG | 0.969
25 | TCAGTCGGCC | 0.991
26 | GCTTGCTTCT | 0.995
27 | TTAAAAGTA | 0.981
28 | ATGGTCATCT | 0.999
29 | ACATGGTGGT | 1.09
30 | TTATGAGGTC | 1.08
31 | TCGGAGGGCA | 0.997
32 | AACGGCGTCG | 1.01
33 | GCAACGAGGC | 1.06
34 | CGGTTCAAAT | 0.985
35 | CGAGTGCTAG | 1.04
36 | GAATTTAGA | 1.01
37 | TCTTGGGAGG | 1.05
38 | TAAGGTGCGG | 1.01
39 | GCTGAGCCTG | 0.945
40 | AGGCCCCTAA | 1.02
41 | GGATTGGTGT | 0.998
42 | GGTTTCGCAT | 1.18
43 | CCTTGACCGC | 2.3
44 | GTCGTGGGTA | 0.927
45 | CGGCGAAT | 0.961
46 | CACTAAAACC | 1.06

Row | Sequence | switch fluorescence ratio
47 | AAGGAACGGG | 1.01
48 | GATTGAGTGC | 0.904
49 | GCCGGGTCCA | 1
50 | TTTAACTGAG | 1.02
51 | ATTCGCTCGT | 0.973
52 | CGGAGAACAT | 0.987
53 | GTTAGTTGAG | 0.972
54 | GTCTTATGTC | 0.979
55 | TGGAATGTCG | 0.953
56 | CGGTCATCAC | 1.03
57 | TCTCAGAAAG | 1.02
58 | AATCGTGTAA | 0.993
59 | AGAGCTTGGA | 0.999
60 | CATGCGTGAA | 0.999
61 | TCTCTGACAT | 1.18
62 | AGAAGTATTG | 0.989
63 | TCGTGCGAAT | 1.03
64 | TAGTAATA | 1.03
65 | TGATAGCGGC | 0.988
66 | TCCCGTAGGT | 1
67 | TTACCTAA | 1.08
68 | TGACCCACGA | 1.42
69 | GTTCCTACAG | 1.01

Row | Sequence | switch fluorescence ratio
70 | TCCTCGAGAG | 1.12
71 | CGTCTTCATT | 0.997
72 | CATTCCGATA | 1.35
73 | TTGGCCACTT | 1
74 | TGAACTTTGG | 0.945
75 | GGTTCAATAG | 1.15
76 | GTGAGGAGC | 0.979
77 | ATTTTTTAAT | 0.94
78 | ACGAAAGGGT | 1.05
79 | AGCATGAGAG | 1.04
80 | AGGAGGAAAT | 1.03
81 | CGTAGTTAGT | 0.98
82 | CACTAGAAGT | 1.01
83 | TTCACGTCCA | 1.06
84 | ATGTGGGTCG | 1.25
85 | CAGGAAATTA | 1.01
86 | TTGATACTTG | 0.997
87 | ATAGGATAT | 0.968
88 | TAGTCTTGT | 0.973
89 | TCGTTATGCA | 1.06
90 | TCGGGTGCAC | 0.982
91 | TCCTGTGTCG | 0.946
92 | CTAGACCAGT | 1.02

Row | Sequence | switch fluorescence ratio
93 | AACTTGAGCT | 1.01
94 | AGGACGGGAG | 0.993
95 | AGCAATTAGT | 1.19
96 | GAGTGTGGGA | 1.01
97 | AGATCCGTGC | 1.14
98 | GTTGAGCCAT | 0.989
99 | GAATAGATGG | 0.967
100 | CGCCGTGATC | 1.16
101 | GATTGCACAG | 1.04
102 | TGACTAACGG | 1.08
103 | ACCCGGGACA | 0.997
104 | TGTCGAATAC | 2.1
105 | CTTGTTATGA | 0.957
106 | TGGCAGTATG | 0.95
107 | CGGATGGGTT | 0.963
108 | TGGGTGCCCG | 1.02
109 | AGACTAGTAG | 0.975
110 | TTATTGGACA | 0.983
111 | GAGACGTAAA | 1.03
112 | TAATGGCTAG | 0.99
113 | GGCATAGGCA | 0.951
114 | CAGGGTCTCC | 0.966
115 | GGCGCAACTA | 1.38

Row | Sequence | switch fluorescence ratio
116 | ACGACGGCAA | 5.3
117 | CAGGGTATCG | 1.03
118 | TCCACTGAGA | 1.04
119 | AGTGAGAGCA | 0.996
120 | ATTGGAATAT | 1.01
121 | GTAACTCGGC | 0.999
122 | TTAGCTTCGG | 1.04
123 | TAACGCTCGC | 1.13
124 | TGCATAAGG | 0.993
125 | TAATCCCGTT | 0.958
126 | AATGGTAGTG | 0.982
127 | GGATATGATA | 0.988
128 | GTAGATTGTT | 0.982
129 | CCGGTACCAA | 1.6
130 | TTCTGTGAAA | 1.01
131 | TTCATAACAG | 0.983
132 | CTACGATGT | 1.01
133 | TTTGGTCCCC | 1.01
134 | CGCCGTAATC | 2.43
135 | TAAAAATTGA | 0.985
136 | GATCTTCTGT | 1.05
137 | CTGGCCGAGA | 0.982
138 | ATGGGGAGAC | 1.01

Row | Sequence | switch fluorescence ratio
139 | AAGTGGTTCA | 0.971
140 | TTTTAGGGG | 0.962
141 | CGTCCGGCCT | 1.09
142 | CTCTTATACT | 1.04
143 | TGTCCTTTGC | 1.02
144 | GGCGATAGCG | 1.01
145 | CAATTAGGCT | 1.01
146 | TACATTTACA | 1.19
147 | ACATTAGGCC | 1.03
148 | CTGAGGGATT | 0.986
149 | GGCTACGTCG | 1.03
150 | TTTTACGATT | 1.02
151 | AAAGCAACGA | 1.08
152 | TGCGAGCAGG | 1.02
153 | CCACGTAAGG | 1.3
154 | TTTTCTTGCT | 0.993
155 | CTGGTTTACC | 0.972
156 | CATCCGATGG | 1.41
157 | CGGTATCGAG | 0.986
